Data on 25 compounds can be found in paper PMC4336329 (PLoS ONE, 2015).

Among all 310,000 compounds or so, about 2,200 (0.71%) showed an effect of 50% or more. Effects have a minus sign here. This is one part of the list.

In the experiment the target is human ether-à-go-go-related gene (hERG) potassium channel (human, UniProt Q12809). In words: primary screen, population patch clamp on CHO cells stably expressing hERG.
Chain of human ether-à-go-go-related gene (hERG) potassium channel (Q12809 whole entry, looked up): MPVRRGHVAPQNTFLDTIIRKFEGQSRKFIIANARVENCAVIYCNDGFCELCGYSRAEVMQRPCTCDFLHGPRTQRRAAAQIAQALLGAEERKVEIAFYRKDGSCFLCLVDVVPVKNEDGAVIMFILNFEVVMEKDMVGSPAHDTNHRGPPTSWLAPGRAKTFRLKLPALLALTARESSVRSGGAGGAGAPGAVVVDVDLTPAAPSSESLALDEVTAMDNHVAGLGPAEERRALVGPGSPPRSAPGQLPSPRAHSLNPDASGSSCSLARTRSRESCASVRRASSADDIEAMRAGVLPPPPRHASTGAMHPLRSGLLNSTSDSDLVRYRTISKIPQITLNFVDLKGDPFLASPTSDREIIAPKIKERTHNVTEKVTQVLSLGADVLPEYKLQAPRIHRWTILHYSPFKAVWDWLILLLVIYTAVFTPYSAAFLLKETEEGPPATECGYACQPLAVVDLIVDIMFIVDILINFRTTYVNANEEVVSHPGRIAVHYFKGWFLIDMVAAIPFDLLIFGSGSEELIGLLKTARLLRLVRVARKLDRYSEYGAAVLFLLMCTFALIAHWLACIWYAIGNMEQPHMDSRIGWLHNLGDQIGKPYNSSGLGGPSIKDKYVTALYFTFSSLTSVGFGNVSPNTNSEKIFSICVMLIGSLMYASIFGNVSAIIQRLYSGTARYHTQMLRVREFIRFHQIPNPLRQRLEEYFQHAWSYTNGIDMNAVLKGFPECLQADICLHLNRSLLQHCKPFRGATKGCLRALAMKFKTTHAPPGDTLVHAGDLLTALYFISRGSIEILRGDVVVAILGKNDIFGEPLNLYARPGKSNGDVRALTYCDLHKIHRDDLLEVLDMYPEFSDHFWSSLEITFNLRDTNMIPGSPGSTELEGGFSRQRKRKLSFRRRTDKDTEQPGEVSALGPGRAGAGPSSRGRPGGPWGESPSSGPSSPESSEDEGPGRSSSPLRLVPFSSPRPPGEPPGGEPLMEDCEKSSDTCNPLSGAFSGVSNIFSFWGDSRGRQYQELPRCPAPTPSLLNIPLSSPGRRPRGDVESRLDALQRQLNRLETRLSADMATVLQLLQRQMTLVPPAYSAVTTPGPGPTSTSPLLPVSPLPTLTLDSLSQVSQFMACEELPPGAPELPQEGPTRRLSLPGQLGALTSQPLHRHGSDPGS
Consider `O=C(NCc1ccco1)C1CCCN1C(=O)Nc1cccc(Cl)c1` (stereo not shown), for which the “hERG current change (%, negative = inhibition) at 1uM” value came out at 8.37%. As to `COc1ccc(-c2nc3ccccc3c(=O)n2-c2cccnc2)cc1`, the “hERG current change (%, negative = inhibition) at 1uM” value is recorded as 5.93%.

Turning to `Cc1sc2ncn(-c3ccccc3)c(=O)c2c1C`, the “hERG current change (%, negative = inhibition) at 1uM” value was 15.1%. Consider `O=C(Nc1ccccc1C(F)(F)F)c1ccc(F)c(S(=O)(=O)N2CCOCC2)c1`, for which the “hERG current change (%, negative = inhibition) at 1uM” value came to 7.47%.

Take `COc1ccc(Br)c(C(=O)Nc2nc3ccccc3[nH]2)c1`: the “hERG current change (%, negative = inhibition) at 1uM” value is listed as 13.8%. Consider `CCOC(=O)C(=O)Nc1ccc(S(=O)(=O)Nc2ncccn2)cc1`, for which the “hERG current change (%, negative = inhibition) at 1uM” value is recorded as 3.04%. Consider `O=C(CN1CCOCC1)N/N=C/c1cccc2ccccc12`, for which the “hERG current change (%, negative = inhibition) at 1uM” value is on record as 16.2%. For `Cc1ccc(NC(=O)c2ccccc2)cc1-n1cnnn1`, the “hERG current change (%, negative = inhibition) at 1uM” value is reported as 15.5%. Under `O=C(CCl)NC(Cc1c[nH]c2ccc(OCc3ccccc3)cc12)C(=O)O` (stereo not shown) stands 14.3%. In the case of `COc1ccccc1N1CCN(C(=S)Nc2ccccc2)CC1`, the “hERG current change (%, negative = inhibition) at 1uM” value is 13.5%. For `CC(C)n1nc(C(=O)N2CCN(S(=O)(=O)c3cccs3)CC2)c2ccccc2c1=O`, the “hERG current change (%, negative = inhibition) at 1uM” value was found to be 3.74%.

With `Cc1ccc(C2C(C#N)=C(N)Oc3n[nH]c(-c4cccs4)c32)cc1` (stereo not shown), the “hERG current change (%, negative = inhibition) at 1uM” value was determined as 16.7%. On to `COc1ccc(-c2nc(SCc3ccccc3)n(S(C)(=O)=O)n2)cc1`, for which the “hERG current change (%, negative = inhibition) at 1uM” value is on record as -6.53%.

In the case of `COc1cccc(/C=C/C(=O)c2ccc3c(c2)OCCO3)c1OC`, the “hERG current change (%, negative = inhibition) at 1uM” value is reported as 9.53%. With `COCCN(C(=O)c1ccc(C)o1)c1c(N)n(CC(C)C)c(=O)[nH]c1=O`, the “hERG current change (%, negative = inhibition) at 1uM” value was -18.4%. As to `CCCc1cc(Nc2ccccc2)n2ncnc2n1`, the “hERG current change (%, negative = inhibition) at 1uM” value came to 11.2%. On to `Cc1cc(C)c(C2C3=C(Nc4c2c(C)nn4-c2ccccn2)c2ccccc2C3=O)c(C)c1` (stereo not shown), for which the “hERG current change (%, negative = inhibition) at 1uM” value is -2.03%. Under `N#C/C(=C\c1cccnc1)C(=O)Nc1ccc(C(=O)O)cc1` stands 12.2%; under `Cn1c(SCCN2CCCCC2)nnc1-c1ccccc1Br.O=C(O)C(=O)O`, 12.2%; under `Cc1ccc(C)c(NP(=O)(Oc2ccccc2)Oc2ccccc2)c1`, 12.2%.

For the compound `Nc1cc(C(=O)OCC(=O)N2CCOCC2)ccc1Cl`, the “hERG current change (%, negative = inhibition) at 1uM” value worked out at 17.7%. Consider `Cc1cc(C)c2cc(C(=O)N3CCc4ccccc4C3)[nH]c2c1`, for which the “hERG current change (%, negative = inhibition) at 1uM” value is 1.19%. As for `CN1CCN(C(=O)C2CCCN(S(=O)(=O)c3ccc(F)cc3)C2)CC1` (stereo not shown), the “hERG current change (%, negative = inhibition) at 1uM” value came to 17.8%. Consider `CO/N=C/C(NC(=O)c1ccc(C(F)(F)F)cc1)C(=O)OC` (stereo not shown), for which the “hERG current change (%, negative = inhibition) at 1uM” value is 19.5%.

Take `O=C1Nc2ccccc2/C1=N\N=C\c1ccc(O)c(O)c1`: the “hERG current change (%, negative = inhibition) at 1uM” value is listed as 9.87%.
